Data: the supplement of paper PMC9912026
± gives the uncertainty stated by the source. This continues a long series; more values of the same kind are listed elsewhere.

Test system: A375_Cra_F7_5/13
Assay: pERK immunofluorescence, normalised; higher = more ERK phosphorylation
Conditions: vemurafenib 1 µM, drug treatment time 24 h
Protocol: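 A375 or A375 CRISPRa-EGFR (A375_Cra_F7_5/13) cells were adapted for 24 h to a cobimetinib dose series, with or without 1 uM vemurafenib, then stimulated with EGF (100 ng/mL) or mock medium and fixed at the indicated times. pERK was measured by immunofluorescence as the population mean normalised to baseline, with the SD of technical replicates (n=2).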

O=C(c1ccc(F)c(F)c1Nc1ccc(I)cc1F)N1CC(O)([C@@H]2CCCCN2)C1 [cobimetinib]
pERK immunofluorescence
Conditions	cobimetinib 31.62 pM	cobimetinib 0.0001 µM	cobimetinib 0.000316228 µM	cobimetinib 0.001 µM	cobimetinib 0.003162278 µM	cobimetinib 0.01 µM	cobimetinib 0.031622777 µM	cobimetinib 0.1 µM	cobimetinib 0.316227766 µM	cobimetinib 1 µM
EGF 0 ng/mL, time after EGF/mock 0.083 h	0.226 ± 0.024	0.226 ± 0.0024	0.221 ± 0.0091	0.192 ± 0.0078	0.175 ± 0.0058	0.1338 ± 0.00089	0.115 ± 0.0037	0.104 ± 0.0011	0.0994 ± 0.0019	0.0994 ± 0.0013
EGF 0 ng/mL, time after EGF/mock 0.5 h	0.232 ± 0.024	0.228 ± 0.0018	0.222 ± 0.0047	0.21 ± 0.015	0.176 ± 0.0039	0.182 ± 0.0041	0.162 ± 0.0031	0.12 ± 0.0085	0.09439 ± 0.00021	0.09596 ± 0.00018
EGF 0 ng/mL, time after EGF/mock 2 h	0.184 ± 0.0063	0.189 ± 0.0056	0.1813 ± 0.0012	0.161 ± 0.0068	0.147 ± 0.012	0.124 ± 0.0038	0.1133 ± 0.00093	0.103 ± 0.0024	0.09944 ± 0.00077	0.09921 ± 0.00067
EGF 0 ng/mL, time after EGF/mock 8 h	0.1451 ± 0.00053	0.15 ± 0.0039	0.149 ± 0.0029	0.126 ± 0.004	0.113 ± 0.0015	0.103 ± 0.0016	0.0871 ± 0.0007	0.08363 ± 0.00051	0.0835 ± 0.0033	0.082095 ± 6.6e-05
EGF 0 ng/mL, time after EGF/mock 24 h	0.149 ± 0.0024	0.14 ± 0.0061	0.147 ± 0.0047	0.13839 ± 2.7e-05	0.124 ± 0.0067	0.125 ± 0.0025	0.104 ± 0.0072	0.0978 ± 0.0036	0.0856 ± 0.0022	0.08216 ± 0.00013
EGF 100 ng/mL, time after EGF/mock 0.083 h	1.36 ± 0.024	1.35 ± 0.019	1.27 ± 0.063	1.313 ± 0.0028	1.319 ± 0.004	1.24 ± 0.053	1.06 ± 0.064	0.71 ± 0.017	0.189 ± 0.0088	0.11 ± 0.0014
EGF 100 ng/mL, time after EGF/mock 0.5 h	1.27 ± 0.023	1.21 ± 0.065	1.274 ± 0.0085	1.23 ± 0.026	1.268 ± 0.0054	1.25 ± 0.015	1.16 ± 0.025	0.953 ± 0.0062	0.6 ± 0.011	0.142 ± 0.0051
EGF 100 ng/mL, time after EGF/mock 2 h	0.796 ± 0.013	0.8007 ± 0.0069	0.783 ± 0.018	0.7981 ± 0.0023	0.775 ± 0.016	0.697 ± 0.012	0.617 ± 0.0065	0.474 ± 0.0084	0.271 ± 0.011	0.1223 ± 0.00084
EGF 100 ng/mL, time after EGF/mock 8 h	0.604 ± 0.022	0.581 ± 0.013	0.5787 ± 0.0033	0.566 ± 0.0067	0.5479 ± 0.0016	0.4851 ± 0.0043	0.421 ± 0.0053	0.2992 ± 0.0014	0.161 ± 0.004	0.0943 ± 0.003
EGF 100 ng/mL, time after EGF/mock 24 h	0.761 ± 0.012	0.728 ± 0.033	0.732 ± 0.02	0.7417 ± 0.0064	0.695 ± 0.048	0.6199 ± 0.0043	0.526 ± 0.0061	0.377 ± 0.028	0.186 ± 0.0054	0.0932 ± 0.0013
